Source: PubChem BioAssay AID2147 (National Center for Advancing Translational Sciences (NCATS), 2009)
Hit rate of the full screen: of about 230,000 compounds, about 3,600 (1.6%) were called active. The shares of active, inactive and inconclusive entries below differ from those in the screen. The call rests on the fitted dose curve; in most records, active means well fitted inhibition curve with a large enough effect (not every such curve was filed as active); inconclusive means small, poorly fitted or top-dose-only effect, or another doubt; inactive means no such curve, though single readings can be large or run the other way. Potencies beside an inconclusive call are fits to weak or partial responses and may not hold up.

The compounds below were run against Lysine-specific demethylase 4E (Homo sapiens) (UniProt B2RXH2) (assay: qHTS Assay for Inhibitors of Human Jumonji Domain Containing 2E (JMJD2E)). Details: JMJD2E catalytic domain, FDH-coupled NADH fluorescence (FDH is formaldehyde dehydrogenase); series mostly up to 57.1 µM; activity change, negative = inhibition: at the top concentration.
Further: nearly all actives have a fitted effect of over 50% in size.
Potency means the concentration at half of the fitted maximal effect; tags describe the fitted curve by direction and shape.
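Wherever activity change, negative = inhibition is given: 0% = wells with enzyme and -100% = buffer wells without enzyme.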

Sequence of UniProt B2RXH2 (B2RXH2 whole entry, looked up, the tested form may be a part): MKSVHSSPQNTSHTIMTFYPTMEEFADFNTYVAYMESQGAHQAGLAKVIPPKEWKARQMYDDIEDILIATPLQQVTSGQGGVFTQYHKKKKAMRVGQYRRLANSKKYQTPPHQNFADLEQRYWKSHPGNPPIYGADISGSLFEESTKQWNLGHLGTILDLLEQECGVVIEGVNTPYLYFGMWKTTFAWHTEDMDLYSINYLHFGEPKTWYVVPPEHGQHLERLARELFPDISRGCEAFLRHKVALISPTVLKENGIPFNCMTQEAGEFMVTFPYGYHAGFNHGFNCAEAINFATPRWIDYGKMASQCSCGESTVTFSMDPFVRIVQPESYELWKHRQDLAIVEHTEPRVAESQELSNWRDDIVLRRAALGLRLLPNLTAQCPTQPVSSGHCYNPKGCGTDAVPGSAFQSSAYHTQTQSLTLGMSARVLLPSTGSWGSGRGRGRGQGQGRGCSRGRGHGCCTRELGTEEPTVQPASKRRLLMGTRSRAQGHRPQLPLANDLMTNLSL

Row | SMILES | activity change, negative = inhibition | Potency
1 | Cc1ccc(NC(=O)c2ccc(S(=O)(=O)N3CCC(C)CC3)cc2)cc1 | inactive: -4.27% | –
2 | CCOC(=O)CC(=O)CSc1nc(N)c(C#N)c(-c2ccc(Cl)cc2)c1C#N | – | inconclusive: 35.5 µM [inhibitor, single point]
3 | CC(C)CN(C(=O)CN1CCN(c2ccccc2F)CC1)c1c(N)n(CC(C)C)c(=O)[nH]c1=O | – | inconclusive: 28.2 µM [inhibitor, single point]
4 | CC(C)N(C(=O)C[n+]1ccsc1N)c1ccccc1 | inactive: -1.31% | –
5 | CC1=C(C(=O)Nc2ccccc2)C(c2cc(CN3CCOCC3)cs2)C2=C(CCCC2=O)N1 (stereo unspecified) | – | inconclusive: 31.6 µM [inhibitor, partial curve]
6 | C/C(=N/NC(=O)CNc1ccc(C)cc1)c1ccc(Br)s1 | inactive: 4.53% | –
7 | N#C/C(=C\c1coc2ccccc2c1=O)C(N)=S | – | inconclusive: 35.5 µM [inhibitor, single point]
8 | COC(=O)c1ccccc1NC(=O)C1CCCCC1C(=O)O (stereo unspecified) | – | inconclusive: 31.6 µM [inhibitor, partial curve]
9 | Cc1cccc2cc(CN(CC3CCCO3)C(=S)NCc3ccco3)c(=O)[nH]c12 (stereo unspecified) | inactive: -0.599% | –
10 | [O-][N+]1=c2ccc(Nc3ccccc3)cc2=NC12CCCCC2 | – | inconclusive: 7.94 µM [inhibitor, full curve, poor fit]
11 | COc1cc(NC(=O)C2=C(N3CCOCC3)/C(=C/c3ccc(Cl)cc3)CC2)cc(OC)c1OC | – | inconclusive: 35.5 µM [inhibitor, single point]
12 | N#Cc1cccc(NC(=O)Cn2c3[n+](c4ccc(C(F)(F)F)cc42)CCCCC3)c1 | inactive: -25.4% | –
13 | Cc1noc(C)c1COc1ccc(C(=O)Nc2cccnc2)cc1 | inactive: -1.84% | –
14 | CN(C)c1ccc(C=Nc2ccc(N(C)C)cc2)cc1 | – | active: 20 µM
15 | CC1(C)CC(=O)c2cc(C(=O)NC3CCSC3=O)c(=O)n(-c3ccccc3)c2C1 (stereo unspecified) | inactive: -21.9% | –
16 | COc1ccc2[nH]c(=O)c(CN(C(=O)c3ccco3)C(C)C)cc2c1 | – | inconclusive: 28.2 µM [inhibitor, partial curve]
17 | Cc1ccnc(NC(=O)Cc2ccc([N+](=O)[O-])cc2)c1 | inactive: -5.15% | –
18 | O=C(CSc1nncs1)N1CCN(S(=O)(=O)c2ccccc2)CC1 | inactive: 13.1% | –
19 | CCCn1c(-c2ccc[nH]c2=O)nc2ccccc21 | – | inconclusive: 28.2 µM [inhibitor, partial curve]
20 | Cc1c(CCO)c(=O)n(-c2ccccc2)n1S(=O)(=O)c1c(Cl)cc(Cl)cc1Cl | inactive: -5.88% | –
21 | CC(=O)NC1Sc2ccccc2N=C1c1ccccc1 (stereo unspecified) | – | inconclusive: 39.8 µM [inhibitor, single point]
22 | CCOC(CNC(=O)c1ccc(N2CCc3ccccc32)c([N+](=O)[O-])c1)OCC | inactive: 3.59% | –
23 | O=C(N/C=C/c1ccccc1)Nc1ccc(Cl)cc1 | – | inconclusive: 35.5 µM [inhibitor, single point]
24 | COc1ccc(C(=O)/C=C/NCc2ccc(F)cc2)cc1OC | – | inconclusive: 25.1 µM [inhibitor, single point]

Row | SMILES | activity change, negative = inhibition | Potency
25 | Cc1oc2c(CN3CCCC3)c(O)ccc2c(=O)c1-c1ccccc1 | – | inconclusive: 31.6 µM [inhibitor, partial curve]
26 | O=c1[nH]c2ccccc2nc1/C=C/c1ccc(F)cc1 | – | inconclusive: 20 µM [inhibitor, partial curve]
27 | COc1ccc(CCNC(=O)c2cc(-c3ccco3)on2)cc1OC | inactive: -4.88% | –
28 | Cn1c(C(=O)NCC2CCCO2)cc2c(=O)n3ccccc3nc21 (stereo unspecified) | – | inconclusive: 11.2 µM [inhibitor, partial curve]
29 | CC(C)OC(=O)[C@H]1[C@H](c2ccc(Cl)cc2)[C@@](C#N)(C(N)=O)[C@@H]2C=CC(C(N)=O)=CN21 | – | inconclusive: 28.2 µM [inhibitor, single point]
30 | COc1cccc(C(=O)Nc2cc(S(=O)(=O)N3CCCCC3)ccc2OC)c1 | – | inconclusive: 39.8 µM [inhibitor, single point]
31 | Cc1c(N2C(=O)c3ccc4c5c(ccc(c35)C2=O)CC4)c(=O)n(-c2ccccc2)n1C | – | inconclusive: 20 µM [inhibitor, partial curve]
32 | COc1ccc(Cn2nnnc2C(c2cc3cccc(C)c3[nH]c2=O)N2CCOCC2)cc1 (stereo unspecified) | – | inconclusive: 31.6 µM [inhibitor, single point]
33 | O=C(COC(=O)CCC(=O)c1ccc(F)cc1)Nc1ccc(N2CCOCC2)cc1 | inactive: -5.31% | –
34 | Oc1ccc(/C=N/Nc2ccc3ccccc3c2)c(O)c1 | – | inconclusive: 28.2 µM [inhibitor, single point]
35 | O=C(O)Cn1cc(C(=O)c2ccco2)c2ccccc21 | – | inconclusive: 39.8 µM [inhibitor, single point]
36 | COc1ccc(CCNC(=O)CC2Nc3ccccc3NC2=O)cc1OC (stereo unspecified) | – | inconclusive: 14.1 µM [inhibitor, partial curve]
37 | O=c1c(Br)c(Br)cnn1-c1ccccc1 | inactive: 2.97% | –
38 | O=C(COC(=O)c1cc(S(=O)(=O)Nc2ccccc2Cl)ccc1O)Nc1nc2ccccc2s1 | – | inconclusive: 39.8 µM [inhibitor, single point]
39 | CCn1c(COc2cccc(C)c2C)nnc1SCC(=O)Nc1cc(C)on1 | – | inconclusive: 7.08 µM [inhibitor, single point]
40 | COC(=O)C1C(=O)C2=C(CC1C)NC(=O)CC2c1ccccc1 (stereo unspecified) | – | inconclusive: 25.1 µM [inhibitor, single point]
41 | COC(=O)c1ccccc1NC(=O)CCc1ccccc1 | – | inconclusive: 22.4 µM [inhibitor, single point]
42 | CCc1c(OC(C)=O)c2ccccc2n(C)c1=O | – | inconclusive: 17.8 µM [inhibitor, partial curve]
43 | CC(=O)Nc1ccc2nc(NC(=O)COc3ccc(C)cc3)sc2c1 | – | inconclusive: 25.1 µM [inhibitor, partial curve]
44 | O=C(COC(=O)c1cccc2ccccc12)Nc1ncc(C(F)(F)F)cc1Cl | – | inconclusive: 28.2 µM [inhibitor, partial curve]
45 | COc1cc2c3nnc(-c4ccc(F)cc4)c-3cn(Cc3cccc(F)c3)c2cc1OC | – | inconclusive: 14.1 µM [inhibitor, partial curve]
46 | COc1ccc(OC)c(C(=O)CSc2nnc(-c3ccc(OC)c(OC)c3)o2)c1 | – | inconclusive: 28.2 µM [inhibitor, single point]
47 | COc1ccc(CCNC(=O)C2CCN(c3nccc(C)n3)CC2)cc1 | – | inconclusive: 35.5 µM [inhibitor, partial curve]
48 | O=c1cc(-c2ccccc2)c2cc(Cl)c(O)c(CN3CCOCC3)c2o1 | – | inconclusive: 39.8 µM [inhibitor, single point]

Row | SMILES | activity change, negative = inhibition | Potency
49 | COc1ccc(CN2CCN(C(=O)c3ccco3)CC2)cc1OCc1ccccc1 | – | inconclusive: 39.8 µM [inhibitor, single point]
50 | Nc1cccc(-c2nc3ccccc3s2)c1 | – | inconclusive: 31.6 µM [inhibitor, partial curve]
51 | O=C(CSc1nccc(-c2cccs2)n1)Nc1ccc(Cl)cc1 | – | inconclusive: 39.8 µM [inhibitor, single point]
52 | Cc1ccc(-c2nc3cnccn3c2Nc2ccccc2)o1 | – | inconclusive: 31.6 µM [inhibitor, partial curve]
53 | O=C(O)c1cc2c([nH]c1=O)CCCC2 | – | inconclusive: 28.2 µM [inhibitor, partial curve]
54 | c1ccc2c(c1)CNc1ccccc1C2 | inactive: 2.2% | –
55 | Cc1cc(Nc2cccc(F)c2)nc(-c2ccccc2O)n1 | – | inconclusive: 39.8 µM [inhibitor, single point]
56 | O=C1CC(=O)c2c1cccc2[N+](=O)[O-] | inactive: -9.23% | –
57 | O=C(O)/C=C/C(=O)Nc1ccc(Cl)c(C(=O)O)c1 | – | inconclusive: 39.8 µM [inhibitor, single point]
58 | CC(=O)Nc1cccc(-c2csc(Nc3cc(C)ccn3)n2)c1 | – | inconclusive: 35.5 µM [inhibitor, single point]
59 | CCOc1cccc(OCCOCCN(C)C)c1 | – | inconclusive: 39.8 µM [inhibitor, single point]
60 | Nc1c(C(=O)NCCc2ccccc2)sc2nc(N3CCOCC3)c3c(c12)CCCC3 | – | inconclusive: 31.6 µM [inhibitor, partial curve]
61 | Cc1ccc2nc(-c3ccc(NC(=O)CSc4ccccc4)cc3)[nH]c2c1 | – | inconclusive: 25.1 µM [inhibitor, partial curve]
62 | Cc1ccc(S(=O)(=O)N2CCN(c3cc4c(cc3[N+](=O)[O-])n(C)c(=O)n4C)CC2)cc1 | inactive: 3.5% | –
63 | CC1(C)OC2CC3C4CC(F)C5=CC(=O)C=C[C@@]5(C)[C@@]4(F)C(O)C[C@@]3(C)[C@]2(C(=O)CO)O1 (stereo partly specified) | inactive: -12.5% | –
64 | CCOc1ccc(NC(=O)Cn2sc3nc(C)cc(C)c3c2=O)cc1 | – | inconclusive: 35.5 µM [inhibitor, single point]
65 | CCSc1nc(O)cc(=O)n1CC | inactive: 0.858% | –
66 | NCCSc1c(-c2ccccc2)[nH]c2ccccc12 | – | inconclusive: 31.6 µM [inhibitor, partial curve]
67 | O=C(Nc1ccccc1)N1C2CCC1CC(O)(c1cccnc1)C2 (stereo unspecified) | inactive: 5.18% | –
68 | CN(C)C(=O)COC(=O)/C=C/c1cn(-c2ccccc2)nc1-c1cccs1 | – | inconclusive: 31.6 µM [inhibitor, partial curve]
69 | Fc1ccc(N2CCN(Cc3c[nH]c4ccccc34)CC2)cc1 | inactive: -4.56% | –
70 | CC(=O)N1CCN(c2ccc(NC(=O)c3cccc(OCc4ccccc4)c3)cc2)CC1 | – | inconclusive: 39.8 µM [inhibitor, single point]
71 | Cc1cc(C)c2c(n1)nn1c(-n3ccnc3)cc(C)nc21 | – | inconclusive: 25.1 µM [inhibitor, partial curve]
